In PubChem BioAssay AID2546 (National Center for Advancing Translational Sciences (NCATS), 2010):
Screen size: about 310,000 compounds; about 11,000 (3.5%) were called active. The shares of active, inactive and inconclusive entries below differ from those in the screen. The call rests on the fitted dose curve; in most records, active means well fitted inhibition curve with a large enough effect; inconclusive means small, poorly fitted or top-dose-only effect, or effect the other way; inactive means flat fitted curve, though single readings scatter. No potency is given beside an inconclusive call; the fits are too rough.
On the % scale 0 is the no-effect control and ±100 the full control effect; potency means the concentration at half of the fitted maximal effect; tags describe the fitted curve by direction and shape.

Test: VP16 counterscreen qHTS for inhibitors of ROR gamma transcriptional activity;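 further: Gal4-VP16 expression switched on by copper sulfate through the metallothionein promoter; nearly all actives have a fitted effect of over 50% in size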
Conditions: Drosophila S2 Gal4-VP16 UAS-luciferase, luminescence, 20 h; activity, negative = inhibition: at 53.6 µM (top of the series)
With N#CC(C(=O)c1ccc(S(=O)(=O)N2CCCCCC2)cc1)c1nc2ccccc2[nH]1 (stereo not drawn) the Potency was inconclusive [inhibitor, single point].
In the case of CC(=O)N1CCC(N(CCN2CCOCC2)C(=S)Nc2cccc(C)c2)CC1, the Potency is reported as inconclusive [activator, single point].
With Cc1cccc(Cl)c1NC(=O)N1CCCN(c2nc3ccc(Cl)cc3s2)CC1 the Potency was “inactive”.
For COc1ccc(N=C2SCC(c3ccc([N+](=O)[O-])cc3)=NN2CCO)cc1, the Potency was “inactive”.
With NC(=S)Cc1ccc(Cl)cc1Cl the Potency was inconclusive [inhibitor, single point].
In the case of CCCOc1ccc(-c2c(C(=O)N/N=C/c3ccsc3)nnn2-c2nonc2N)cc1, the Potency is reported as inconclusive [inhibitor, single point].
In the case of CCN1C(Nc2ccccc2)=NC[C@@H]1CC(C)C, the Potency is reported as “inactive”.
In the case of O=C(NCCSCc1c(F)cccc1Cl)c1ccco1, the Potency is reported as inconclusive [inhibitor, single point].
For Cc1cc(O)cc(O)c1C=NCc1ccco1, the Potency was active: 5.62 µM.
For Cc1cccc(Nc2nc(N)nc(CCl)n2)c1C, the Potency was inconclusive [inhibitor, partial curve, poor fit].
For C=C(C)Cn1c(SCC(=O)N/N=C/c2cccc(O)c2)nc2ccccc2c1=O, the Potency was inconclusive [activator, single point].
For O=c1[nH]c2cc3c(cc2cc1C(c1nnnn1Cc1ccccc1)N1CCCCCC1)OCCO3 (stereo not drawn), the Potency was inconclusive [inhibitor, full curve, poor fit].
With COc1ccc(NC(=S)Nc2ccc(C)c(Cl)c2)cc1OC the Potency was inconclusive [inhibitor, single point].
In the case of COc1cc2c(cc1OC)C(c1ccccc1N)=NCC2, the Potency is reported as “inactive”.
In the case of O=C1CSC(c2ccc(F)c(F)c2)N1c1ccccc1F (stereo not drawn), the Potency is reported as “inactive”.
With COC(=O)N/N=C\c1c(C)[nH]n(-c2ccccc2)c1=O the Potency was inconclusive [inhibitor, single point].
With Clc1cc(CSc2ccccc2)nc(-c2ccccc2)n1 the Potency was inconclusive [activator, partial curve].
With CC1=CC(C)(C)NC(=S)N1c1ccccc1 the Potency was inconclusive [inhibitor, single point].
In the case of O=C1c2ccc([N+](=O)[O-])cc2C(=O)N1CNc1ccccn1, the Potency is reported as “inactive”.
With CC(=O)c1ccc(N2CCN(C(=O)c3ccc4c(=O)n(-c5ccccc5)c(=O)[nH]c4c3)CC2)cc1 the Potency was inconclusive [activator, single point].
In the case of Cn1c(/C(C#N)=C/c2ccncc2)nc2ccccc21, the Potency is reported as “inactive”.
For COc1ccc(CCNC(=O)c2ccc(-c3ccc([N+](=O)[O-])cc3Cl)o2)cc1OC, the Potency was inconclusive [activator, single point].
With CCN(c1ccc(C)c(C)c1)S(=O)(=O)c1ccc2c(c1)CCN2C(=O)CCC(=O)O the Potency was “inactive”.
For O=C(/C=C/c1ccccc1[N+](=O)[O-])NCCN1C(=O)S/C(=C\c2ccc(F)cc2)C1=O, the Potency was inconclusive [activator, full curve].
With COCCn1c(CN2CCN(c3ccc(F)cc3)CC2)nc2c1c(=O)n(C)c(=O)n2C the Potency was inconclusive [inhibitor, single point].
In the case of Cc1cccc(N2C(=S)N=C(Nc3c(C)cccc3C)C23CCOC(C)(C)C3)c1 (stereo not drawn), the Potency is reported as “inactive”.
In the case of CC(=O)c1ccc(OCC(=O)c2cc(C)n(-c3ccc4c(c3)OCO4)c2C)cc1, the Potency is reported as active: 10 µM.
With COc1cccc2cc(-c3nnc(SCC(=O)Nc4ccc(NC(C)=O)cc4)n3C)oc12 the Potency was “inactive”.
With Cc1cc2oc(=O)cc(CSc3nc(N)cc(N)n3)c2cc1C(C)C the Potency was “inactive”.
With COC(=O)c1cccc(NC(=S)Nc2cccc(Cl)c2C)c1 the Potency was inconclusive [inhibitor, single point].
For Cc1cccc(C(=O)O/N=C2/CC3CCC2(C)C3(C)C)c1 (stereo not drawn), the Potency was inconclusive [inhibitor, partial curve].
With CC(C)(C)c1ccc(-c2n[nH]c(=S)n2CC2CCCO2)cc1 (stereo not drawn) the Potency was active: 10 µM.
For CC1(C)Cc2c(sc(NC(=O)c3ccc(S(=O)(=O)N4CCCCCC4)cc3)c2C(N)=O)C(C)(C)N1, the Potency was inconclusive [inhibitor, single point].
For O=C(/C=C/c1ccco1)NCC1COc2ccccc2O1 (stereo not drawn), the Potency was active: 11.2 µM.
In the case of COc1ccc(CCNC(=O)c2ccc3c(SCC(=O)O)c4c(nc3c2)CCCC4)cc1OC, the Potency is reported as “inactive”.
In the case of CCOc1ccc(NC(=S)N2CCN(S(=O)(=O)c3ccc(C)cc3)CC2)cc1, the Potency is reported as “inactive”.
With COC(=O)c1ccc(-c2noc(CN(C)CCC3CCCCO3)n2)cc1 (stereo not drawn) the Potency was active: 5.62 µM.
In the case of CC(C)c1ccc(NC(=O)c2cc(S(=O)(=O)NCC3COc4ccccc4O3)ccc2F)cc1 (stereo not drawn), the Potency is reported as inconclusive [inhibitor, single point].
With Nn1cnnc1N/N=C/c1ccc(Cl)c([N+](=O)[O-])c1 the Potency was inconclusive [inhibitor, single point].
In the case of COc1cc(/C=C2\SC(c3ccc(C)cc3)=NC2=O)cc(OC)c1OC, the activity, negative = inhibition is reported as inactive: 11.8% [at 0.365 µM].
For O=C(CCNc1ccccc1)c1ccc2c(c1)OCO2, the Potency was “inactive”.
With O=C(O)c1cccc(CSc2nnc(-c3cccnc3)o2)c1 the Potency was inconclusive [inhibitor, partial curve].
For Clc1cccc(-c2nc(NCCCN3CCOCC3)c3ccccc3n2)c1, the Potency was inconclusive [inhibitor, partial curve].
For CC(C)(C)c1ccc(NC(=O)CSc2n[nH]c(=O)n2-c2cccnc2)cc1, the Potency was inconclusive [inhibitor, single point].
In the case of CCOC(=O)c1cnc2cc(Cl)c(OC)cc2c1NCC1CCCO1 (stereo not drawn), the Potency is reported as “inactive”.
With COc1ccc(CNS(=O)(=O)c2ccc3c(c2)CCN3C(=O)C2CC2)cc1 the Potency was active: 15.8 µM.
For Cc1c(Cl)cccc1NC(=S)N(Cc1ccccc1)Cc1cccnc1, the Potency was “inactive”.
With O=C(Cc1ccccc1)Nc1nc2ccccc2[nH]1 the Potency was active: 15.8 µM.
